Laboratory results from the supplement of paper PMC12217912.
This is one part of the list. The full chains were built here from the parent and the listed change. Values near 0.05 are background.

B1: TEV protease; numbered along this chain (parent)
chain: MGESLFKGPRDYNPISSSICHLTNESDGHTTSLYGIGFGPFIITNKHLFRRNNGTLVVQSLHGVFKVKDTTTLQQHLVDGRDMIIIRMPKDFPPFPQKLKFREPQREERICLVTTNFQTKSMSSMVSDTSCTFPSGDGIFWKHWIQTKDGQCGSPLVSTRDGFIVGIHSASNFTNTNNYFTSVPKNFMELLTNQEAQQWVSGWRLNADSVLWGGHKVFMVKPEEPFQPVKEATQL

Variants of: B1
Assay: raw area under fraction-flipped curve 0-4 h after induction (AUC4h, not background-subtracted), DNA-recorder readout of cleavage of the substrate (dimensionless); higher = more cleavage of the substrate by the protease variant
Conditions: temperature: 34 °C; time window: 0-4 h after rhamnose induction
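Also: Bxb1 expression induced with 0.2% (w/v) L-rhamnose at OD600 near 0.5, cultures sampled hourly, flipped fraction per protease–substrate barcode pair counted by paired-end Illumina sequencing.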

Row | Variant | area with substrate ENLYFQI | area with substrate ENLYFQL | area with substrate ENLYFQM | area with substrate ENLYFQN | area with substrate ENLYFQP | area with substrate ENLYFQR | area with substrate ENLYFQS | area with substrate ENLYFQV | area with substrate ENLYFQW | area with substrate ENLYFQF
1 | P104F | 0.042 | 0.0683 | 0.0492 | 0.0499 | 0.0566 | 0.068 | 0.0527 | 0.0422 | 0.048 | 
2 | S16V |  | 0.0661 | 0.0827 | 0.0452 | 0.056 | 0.0564 | 0.107 |  | 0.0648 | 0.0672
3 | W144N | 0.0567 | 0.0602 | 0.0822 |  | 0.0427 | 0.0558 | 0.0838 |  |  | 
4 | P96L |  | 0.0593 | 0.0851 | 0.0734 |  | 0.0785 | 0.103 | 0.0545 | 0.053 | 
5 | P96F |  | 0.0701 | 0.0784 | 0.0596 | 0.0566 | 0.0609 | 0.0937 |  |  | 0.0573
6 | P96Y | 0.0643 | 0.0671 | 0.12 | 0.0702 |  |  | 0.106 | 0.0683 | 0.0693 | 0.0607
7 | Q105F |  | 0.0657 | 0.0915 | 0.0739 |  | 0.0576 | 0.0999 | 0.0581 | 0.0695 | 
8 | A232F |  |  | 0.0806 |  |  |  | 0.102 | 0.0457 | 0.0704 | 
9 | A232T | 0.0451 |  |  | 0.0845 |  | 0.0488 | 0.115 |  |  | 
10 | A232W |  |  | 0.16 | 0.0819 | 0.0519 | 0.0508 | 0.0929 | 0.064 |  | 
11 | T192W | 0.0725 |  |  |  |  |  | 0.0942 |  |  | 
12 | T192V |  | 0.0785 |  |  |  |  | 0.108 |  |  | 
13 | G136W | 0.0551 |  | 0.0682 | 0.0648 |  | 0.051 | 0.0976 | 0.0566 | 0.0702 | 
14 | G136R | 0.0522 | 0.059 | 0.0926 | 0.0723 | 0.0629 | 0.0632 | 0.102 |  | 0.0569 | 
15 | M88D |  |  |  |  |  | 0.0496 | 0.0429 |  | 0.0433 | 
16 | M88H | 0.0327 |  | 0.0477 | 0.0398 |  |  | 0.0574 |  |  | 
17 | M88C |  |  |  | 0.0848 |  |  | 0.102 | 0.0588 |  | 
18 | V64W | 0.049 | 0.0594 | 0.125 | 0.0821 |  | 0.0737 | 0.0995 |  | 0.0737 | 0.0694
19 | V64R | 0.061 |  |  | 0.0578 | 0.0619 | 0.0538 | 0.0936 |  | 0.0729 | 

Row | Variant | area with substrate ENLYFQI | area with substrate ENLYFQL | area with substrate ENLYFQM | area with substrate ENLYFQN | area with substrate ENLYFQP | area with substrate ENLYFQR | area with substrate ENLYFQS | area with substrate ENLYFQV | area with substrate ENLYFQW | area with substrate ENLYFQF
20 | K216I |  | 0.0584 |  |  | 0.0725 | 0.049 | 0.091 | 0.0638 |  | 
21 | K216D |  |  | 0.0806 |  |  |  | 0.0764 |  |  | 
22 | K216Q | 0.0551 | 0.0324 | 0.105 | 0.0762 |  |  | 0.111 |  | 0.118 | 
23 | T72N |  | 0.0561 | 0.0802 | 0.0721 | 0.0398 | 0.0636 | 0.1 |  | 0.0742 | 
24 | P184V | 0.0611 | 0.0472 |  |  | 0.0704 | 0.029 | 0.0797 | 0.0519 | 0.0507 | 
25 | L56I | 0.032 | 0.0658 |  |  |  |  | 0.0992 |  | 0.0649 | 
26 | T176V | 0.0641 |  | 0.0595 | 0.06 | 0.0708 | 0.0571 | 0.0813 |  |  | 0.0621
27 | T176N | 0.0528 | 0.0602 |  |  | 0.066 | 0.0632 | 0.077 |  | 0.0587 | 
28 | D128R | 0.0671 | 0.0527 | 0.105 |  |  | 0.0858 | 0.124 |  | 0.0737 | 0.0879
29 | D128N |  | 0.0585 | 0.0928 |  |  | 0.0455 | 0.127 | 0.0642 | 0.0608 | 0.0737
30 | H168N | 0.0543 | 0.0578 | 0.0605 |  |  | 0.0597 | 0.0619 | 0.0761 |  | 
31 | H168A |  |  | 0.0654 |  |  | 0.0513 | 0.0662 | 0.056 | 0.0644 | 
32 | H168G | 0.0471 |  | 0.0319 |  |  | 0.0469 | 0.0612 |  | 0.0486 | 0.0462
33 | P40L | 0.0588 | 0.0622 | 0.0592 | 0.0609 |  | 0.0652 | 0.0897 |  | 0.0638 | 
34 | V200S |  |  |  |  |  |  | 0.0737 |  |  | 
35 | V200L | 0.07 | 0.056 | 0.0815 |  | 0.0618 | 0.0649 | 0.0817 | 0.0573 | 0.0799 | 
36 | V200A | 0.0569 |  | 0.0669 | 0.0625 | 0.0614 | 0.0487 | 0.0667 |  |  | 
37 | V200W |  | 0.0649 |  |  | 0.0586 |  | 0.063 |  | 0.0469 | 
38 | R160K |  | 0.0607 | 0.0966 | 0.0867 |  | 0.0612 | 0.0948 | 0.0599 |  | 

Same assay, conditions: temperature: 34 °C; time window: 0-4 h after rhamnose induction

Row | Variant | area with substrate ENLYFQG | area with substrate ENLYFQK | area with substrate ENLYFQQ | area with substrate ENLYFQT | area with substrate ENLYFQY | area with substrate ENLYFQH | area with substrate ENLYFQD | area with substrate ENLYFQE
39 | S16V | 0.117 | 0.0737 | 0.0734 | 0.0627 | 0.0851 |  |  | 
40 | W144N | 0.0838 | 0.0698 | 0.0604 |  | 0.0674 | 0.0575 |  | 
41 | P96L | 0.0762 |  |  | 0.0573 | 0.0728 |  | 0.075 | 
42 | P96F | 0.0762 | 0.0983 |  | 0.0606 |  |  |  | 
43 | P96Y |  | 0.059 |  | 0.0445 |  |  |  | 
44 | Q105F |  | 0.0606 |  | 0.0604 | 0.0683 |  |  | 
45 | A232F |  |  |  | 0.0602 |  |  |  | 
46 | A232T |  |  | 0.102 |  |  |  | 0.0734 | 
47 | A232W |  |  |  | 0.117 |  |  |  | 0.0675
48 | T192V |  | 0.0556 | 0.0505 | 0.0606 |  |  | 0.106 | 
49 | G136W |  | 0.0656 |  | 0.0541 | 0.0629 | 0.07 | 0.0644 | 
50 | G136R | 0.102 | 0.0615 | 0.0627 | 0.0616 | 0.0661 | 0.087 | 0.069 | 
51 | M88D |  |  | 0.0619 |  | 0.0209 |  |  | 0.0628
52 | M88H |  |  |  | 0.0668 |  |  |  | 
53 | M88C |  | 0.0644 |  | 0.0565 |  |  |  | 
54 | V64W |  | 0.0591 |  | 0.0673 | 0.0736 |  |  | 
55 | V64R | 0.0658 |  | 0.0688 | 0.0666 | 0.0882 |  |  | 

Row | Variant | area with substrate ENLYFQG | area with substrate ENLYFQK | area with substrate ENLYFQQ | area with substrate ENLYFQT | area with substrate ENLYFQY | area with substrate ENLYFQH | area with substrate ENLYFQD | area with substrate ENLYFQE
56 | K216I |  |  |  | 0.0615 |  |  |  | 
57 | K216D |  | 0.0588 |  |  | 0.0886 |  |  | 
58 | K216Q | 0.13 | 0.062 |  |  | 0.0833 |  |  | 
59 | T72N | 0.102 |  |  | 0.0742 |  |  | 0.0688 | 
60 | P184V |  | 0.056 |  | 0.0615 | 0.0678 | 0.0624 | 0.0413 | 
61 | L56I |  | 0.0703 | 0.0556 | 0.0947 |  |  |  | 0.0455
62 | T176N | 0.0896 | 0.04 |  | 0.0558 |  |  |  | 
63 | D128R | 0.12 | 0.0445 |  | 0.0581 |  | 0.108 |  | 
64 | D128N |  | 0.0736 | 0.0903 | 0.0756 | 0.0851 |  |  | 
65 | H168N |  |  | 0.0389 | 0.0691 |  | 0.0636 |  | 
66 | H168A |  |  |  | 0.0417 |  |  |  | 
67 | H168G | 0.0782 | 0.0744 |  | 0.0653 |  | 0.0572 |  | 
68 | P40L | 0.103 | 0.0564 |  | 0.0576 | 0.0694 | 0.0857 |  | 0.0647
69 | V200L |  |  |  |  |  | 0.062 | 0.068 | 
70 | V200A |  | 0.0743 |  | 0.0483 |  |  | 0.0632 | 
71 | V200W |  |  |  |  |  | 0.044 | 0.0567 | 
72 | R160K | 0.0847 | 0.0649 |  |  | 0.0801 | 0.0748 |  | 0.0821
